The values below come from ChEMBL document CHEMBL4888484, “Replenishing the malaria drug discovery pipeline: Screening and hit evaluation of the MMV Hit Generation Library 1 (HGL1) against asexual blood stage Plasmodium falciparum ,using a nano luciferase reporter read-out” (2022).

SMILES strings stand for the structures. About 540 (0.36%) of roughly 150,000 compounds showed an effect of 50% or more. The list shows a part of the results.

In this assay the test system is Plasmodium falciparum. As to the kind of experiment: Primary screen in NF54 nanoGlo assay, in single point, at 2uM, 72h; a lower Z score goes with more inhibition. In kind it is functional, Erythrocyte. The settings on record: timepoint 72 hour.
As to `Cc1csc(NC(=O)N2CCC(C)[S+]([O-])CC2)n1` (stereo not drawn), the “% Inhibition” value was -15% and the Z score is recorded as 2.38.
On the same counts, the results for `O=C(CCc1ccsc1)N1CC[C@H](O)C12CCCC2` are -4% and 0.54.
The like results for `C[C@@]1(CO)CN(C(=O)c2ccc(Cl)cc2)C[C@@H]2CN(C3CCC3)CCN21` were, in that order, 0% and -0.01.
The like results for `Cc1ncn(CC2(O)CCC(C)CC2)c(=O)c1C` (stereo not drawn) were, in that order, -8% and 1.25.
Take `CCn1ccc(NC(=O)c2ccsc2)n1`: the “% Inhibition” value was -7% and the Z score was determined as 1.27.
The like results for `COc1ccc2cc(C(=O)N3CC(F)(F)C[C@H]3COc3cccnc3)[nH]c2c1` were, in that order, -5% and 0.79.
On the same counts, the results for `COc1ccc(C(=O)NC2CCCCCC2)cn1` are -4% and 0.84.
The like results for `O=C1CC[C@H](N2CCN(C(=O)c3ccc(OC(F)F)cc3)CC2)CCN1` were, in that order, -5% and 1.01.
Turning to `C[C@@H](C(=O)NCc1ccc(N2CCCC2=O)cc1)n1cccn1`, the “% Inhibition” value is reported as -9% and the Z score turned out to be 1.69.
The like results for `O=C(Cc1cccc(Cl)c1)N1CC[C@@]2(CCCN(CC3CC3)C2=O)C1` were, in that order, -23% and 2.12.
The like results for `COc1ccccc1CC(=O)N[C@H]1CCCN(CCCc2ccccc2)C1` were, in that order, -11% and 1.54.
On the same counts, the results for `Cc1ccc(F)cc1-n1ccnc1C(C)(C)CN1CCOCC1` are -6% and 0.89.
With `CCN1CCN(C(=O)Nc2ccc(C(C)=O)cc2)[C@H]2CS(=O)(=O)C[C@H]21`, the “% Inhibition” value is 6% and the Z score is on record as -0.78.
The like results for `CCOc1ccc(NC(=O)c2c(C(F)(F)F)n[nH]c2C)cc1` were, in that order, 2% and -0.33.
The like results for `COc1ccccc1[C@H]1CCN(S(=O)(=O)c2cccs2)C1` were, in that order, -3% and 0.57.
The like results for `O=C(CC1CCCC1)NCCc1csc(-c2ccccc2)n1` were, in that order, 0% and -0.05.
As to `Cc1cc(C(=O)Nc2nnc([C@H]3CC(=O)N(c4ccccc4)C3)o2)no1`, the “% Inhibition” value was -4% and the Z score was 0.57.
The like results for `CC(C)(C)OC(=O)C1(NC(=O)c2cnccn2)CCCC1` were, in that order, -17% and 2.58.
Take `COc1ccc(Cl)cc1NC(=O)[C@H]1C[C@@H]2CCCN2[C@]12C(=O)Nc1c(C)cc(C)cc12`: the “% Inhibition” value is 0% and the Z score amounted to 0.01.
On the same counts, the results for `C[C@@H](C(=O)NCC1(c2cccs2)CCCCC1)c1cncnc1` are -10% and 1.43.
The like results for `Cc1onc(C(=O)N2CC(F)(F)C[C@H]2CN2CCCCC2)c1CN1CCCCC1` were, in that order, -8% and 1.42.
The like results for `COC(=O)C1C(c2ccccc2)N(c2ccccc2)OC1(C)O` (stereo not drawn) were, in that order, -16% and 2.08.
Turning to `COC(=O)C1=C(C(=O)OC)SC(=C2C(=S)C(C)(C)N(C(=O)c3ccc4c(c3)OCO4)c3ccc(OC)cc32)S1`, the “% Inhibition” value was determined as 3% and the Z score is recorded as -0.61.
The like results for `CC(=O)N1CCn2c(nnc2[C@@H]2CCCN2Cc2c[nH]nc2-c2cccs2)C1` were, in that order, -11% and 1.6.
On the same counts, the results for `Cc1nccn1-c1cncc(N(C)C[C@@H]2CCCN(C)[C@H]2c2ccnn2C)n1` are 4% and -0.76.
On the same counts, the results for `CCc1nn2c(c1-c1ccc(OC)c(S(=O)(=O)NCCc3cccs3)c1)NC(=O)CCC2=O` are -3% and 0.32.
As to `O=C(Cc1cnn(-c2ccccc2)n1)N1CCOC[C@@H]1CCO`, the “% Inhibition” value stood at 3% and the Z score is on record as -0.55.
On the same counts, the results for `COCCC[C@H]1CCCCN1C(=O)c1ccc2nonc2c1` are -2% and 0.28.
Regarding `CCc1cccc(C)c1NC(=O)C1CCN(S(=O)(=O)c2cc3c(cc2C)NC(=O)[C@H](C)O3)CC1`, the “% Inhibition” value is -1% and the Z score was 0.15.
The like results for `Cc1ccn(CC(=O)N2CC3CC2C3NC(=O)Cn2cc(C)cn2)c(=O)c1` (stereo not drawn) were, in that order, -7% and 1.39.
The like results for `CN(C)c1ncc(CN2CCCN(CC(=O)N3CCCC3)CC2)cn1` were, in that order, -5% and 0.81.
On the same counts, the results for `CCCOc1ccc([C@H]2C(=O)N(C3CCC(C)CC3)CC(=O)N2C2CCCC2)cc1OC` (stereo partly drawn) are -20% and 2.23.
Consider `C[C@@H](c1nc(CC(N)=O)nn1CCc1ccccc1)N1CCOCC1`, for which the “% Inhibition” value was -20% and the Z score came to 2.05.
`O=S(=O)(c1ccc2ccccc2c1)N(Cc1ccccc1)c1ccccc1`: the “% Inhibition” value is on record as 0% and the Z score was determined as 0.04.
The like results for `CN(C)[C@@H]1C[C@@H](CO)N(CC(c2ccccc2)c2ccccc2)C1` were, in that order, 9% and -1.24.
The like results for `CS(=O)(=O)NCc1ccccc1N` were, in that order, -18% and 1.69.
For the molecule `O=C(Nc1ccc(C(=O)N2CCCCC2)cc1)c1ccc2c(c1)OCO2`, the “% Inhibition” value is -13% and the Z score came out at 2.53.
The like results for `CN1CC2(CCN(C(=O)C3CCCCCC3)CC2)C[C@@H](c2ccccc2)C1=O` were, in that order, -7% and 1.38.
The like results for `CCN1CCO[C@H](C(=O)Nc2ccc(N3CCCC3)c(C)c2)C1` were, in that order, 1% and -0.07.
The like results for `CCOC(=O)C(Cc1c(F)cccc1F)(NC(C)=O)C(=O)OCC` were, in that order, -4% and 0.58.
`COc1cccc(-c2nnc3c4ccccc4nc(N4CCN(C(=O)C5CCC5)[C@@H](C)C4)n23)c1`: the “% Inhibition” value is -1% and the Z score is listed as 0.22.
As for `CN1CCC2(CC1)CN(CCOc1ccccc1)C(=O)O2`, the “% Inhibition” value was -12% and the Z score is 1.57.
The like results for `CC(C)n1cc(C(=O)N2C[C@@H]3CC[C@H]2CN(C2Cc4ccccc4C2)C3)cn1` were, in that order, -11% and 1.69.
The like results for `CC1CC(c2ccsc2)CN1C(=O)c1nccnc1C(N)=O` (stereo not drawn) were, in that order, -11% and 1.38.
On the same counts, the results for `COc1ccc(C[C@H]2CCOC3(CCN(C(=O)c4ccc(OC)cc4OC)CC3)C2)cc1` are -7% and 1.47.
Consider `N#Cc1ccc(C(=O)N2CCc3c(CN4CCCC4)cccc32)nc1`, for which the “% Inhibition” value is -7% and the Z score is 1.04.
Regarding `CCc1onc(C)c1NC(=O)NCC(C)(C)C(C)C`, the “% Inhibition” value came out at 5% and the Z score is -0.91.
For the molecule `O=S(=O)(N1CCCOCC1)N1CCC[C@H](n2ccnn2)CC1`, the “% Inhibition” value is recorded as -3% and the Z score was 0.5.
With `CC(C)[C@@H](C)CC(=O)Nc1ncccc1O`, the “% Inhibition” value is -1% and the Z score came out at 0.09.
The like results for `O=C1[C@@H](n2nc3ccccn3c2=O)CCN1CC(F)(F)F` were, in that order, 4% and -0.59.
Turning to `O=C(NCC(=O)N(Cc1ccco1)C1(C(=O)NC2CCCC2)CCCCC1)c1ccccc1`, the “% Inhibition” value stood at 15% and the Z score is reported as -2.34.
The like results for `Cc1ccc2nc(N3CCC[C@H](O)C3)c(CN3CCN(C)CC3)cc2c1` were, in that order, -17% and 2.
As to `CN(CC(=O)N1CCc2ccccc21)C1C2CCOC2C1(C)C` (stereo not drawn), the “% Inhibition” value was 5% and the Z score was -0.73.
As to `CN(Cc1ccccn1)Cc1ccnn1C`, the “% Inhibition” value is -14% and the Z score turned out to be 1.55.
Consider `CC1CCN(c2nc3c(c(Oc4ccc(F)cc4)n2)CN(S(=O)(=O)c2ccc(F)cc2)CC3)CC1`, for which the “% Inhibition” value was -4% and the Z score is given as 0.7.
The like results for `CCOc1ccc(-c2c(C)n[nH]c2NC(=O)[C@H]2CCCN(S(=O)(=O)N3CCCC3)C2)cc1OCC` were, in that order, 3% and -0.49.
The like results for `COc1ccc(Cc2n[nH]c3c2CN(Cc2ccc(CO)o2)CC3)cc1` were, in that order, -24% and 2.07.
The like results for `CC(C)N1CC[C@H](NCc2cnc(N3CCOCC3)nc2)C1` were, in that order, 3% and -0.43.
Take `CC(C)C[C@@H]1NC(=O)[C@H](Cc2c[nH]c3ccccc23)NC1=O`: the “% Inhibition” value came out at 2% and the Z score was -0.31.
For the molecule `COCCn1cnc2c(-c3ccccc3)cn(CC(=O)Nc3ccc(C(C)C)cc3)c2c1=O`, the “% Inhibition” value is listed as -6% and the Z score came to 0.92.
For the molecule `Cc1nnsc1CN(C)C[C@@H]1[C@H]2CN(C(=O)N3CCOCC3)C[C@@H]12`, the “% Inhibition” value was -11% and the Z score is recorded as 2.
For the molecule `O=C(NC1CCCCC1O)C1=CCCC1` (stereo not drawn), the “% Inhibition” value is listed as -21% and the Z score is listed as 2.13.
On the same counts, the results for `Brc1ccc(C2(c3nc(-c4cnccn4)no3)CCOCC2)cc1` are -10% and 1.55.
For the molecule `CC(C)CN1CC[C@H](N2CCN(c3ccccc3F)CC2)[C@H](CCC(=O)O)C1`, the “% Inhibition” value is 7% and the Z score is recorded as -1.03.
In the case of `CCC(C)(C)NC(=O)c1cc(Cl)ccc1Cl`, the “% Inhibition” value is -13% and the Z score is 2.08.
On the same counts, the results for `C[C@@H](CN1CCCCC1)NC(=O)Nc1nc(C(F)(F)F)cs1` are 33% and -4.26.
On the same counts, the results for `COc1ccc(C2=NN(C(=O)CN3CCC4(CC3)OCCO4)[C@H](c3ccc(C)cc3C)C2)cc1` are -5% and 0.71.
On the same counts, the results for `CN1CC[C@H](N(C)C(=O)Nc2cccc(-c3cscn3)c2)C1` are -2% and 0.41.
Turning to `NC1(c2ccccc2F)Cc2ccccc2C1`, the “% Inhibition” value was 2% and the Z score is -0.24.
On the same counts, the results for `Nc1cc(C(=O)N2CCOCC2)ccc1Nc1ccccc1` are -6% and 0.76.
On the same counts, the results for `Cc1nc(CNC(=O)NCC(C)(C)C(C)C)no1` are -11% and 1.14.
The like results for `Cc1ccc(NC(=O)c2ccoc2C2(O)CCOCC2)c(C)n1` were, in that order, -11% and 1.8.
As for `O=C(NCc1ccc(S(=O)(=O)N2CCOCC2)s1)C1CC2CCC1C2` (stereo not drawn), the “% Inhibition” value is reported as -15% and the Z score was 2.74.
On the same counts, the results for `COC(=O)C(C)(C)[C@H]1CCCN(C(=O)Cc2ccn[nH]2)C1` are 0% and -0.02.
On the same counts, the results for `COc1cccc(-c2nc3c(cnn3Cc3cccc(Cl)c3)[nH]2)c1O` are -10% and 1.41.
On the same counts, the results for `Cc1cc(N2CCc3ccccc3C2)n2nc(-c3ccco3)nc2n1` are -10% and 1.14.
Consider `Cc1noc(C)c1CN[C@H](c1cccs1)C(C)(C)C`, for which the “% Inhibition” value came to 0% and the Z score was -0.05.
On the same counts, the results for `Cc1n[nH]cc1CN[C@H](c1nccn1C)C1CC1` are -19% and 2.8.
On the same counts, the results for `C#CCNC(=O)c1cc(Br)ccc1F` are -16% and 1.49.
On the same counts, the results for `CCNC(=O)N1CCN(c2nc(-c3ccncc3)nc(C)c2C)CC1` are -11% and 1.37.
As for `Cc1cc(C)c2c(c1)C(NC1CCOC(C3CC3)C1)CCCO2` (stereo not drawn), the “% Inhibition” value amounted to 14% and the Z score is -1.94.
The like results for `O=C(NCCc1c[nH]cn1)Nc1cccc2c1CCCC2` were, in that order, -2% and 0.29.
On the same counts, the results for `Cn1nccc1S(=O)(=O)NC[C@@H]1C[C@H]1C1CCCCC1` are -3% and 0.52.
The like results for `Cc1ccc([C@@H]2CC(c3cccn3C)=NN2C(=O)CN(CCN2CCOCC2)C(=O)c2ccccc2F)cc1` were, in that order, -5% and 0.82.
